Results published in PubChem BioAssay (NCATS).
The shares of active, inactive and inconclusive entries below differ from those in the screen. No potency is given beside an inconclusive call; the fits are too rough. Active and inactive are the calls of the source. Calls follow the shape of the dose curve; as a rule, active = well fitted cell-killing curve with a large enough effect; inconclusive = small, poorly fitted or top-dose-only effect, or effect the other way; inactive = no such curve, though single readings can be large or run the other way.

Test: Viability qHTS for spleen associated tyrosine kinase inhibitor (SYKi) drug resistant MV4-11 cells (AID 1963824); also: nearly all actives have a fitted effect of over 35% in size
Conditions: SYKi-resistant MV4-11 viability, CellTiter-Glo, 72 h; series mostly up to 45 µM; viability, % of control: at the top concentration
How it was run: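 CellTiter-Glo luminescence, read 10 min after reagent addition, reports viability after a 72 hr compound exposure. Cells are an MV4-11 line made resistant to SYK inhibition, seeded at 500 per well onto compound-containing plates.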
Potency is read from the fitted curve at half-maximal effect; tags tell the direction and shape of the fitted curve.

| Structure (SMILES) | Potency | viability, % of control |
| --- | --- | --- |
| CC1(C)CC[C@]2(C(=O)O[C@@H]3O[C@H](CO)[C@@H](O)[C@H](O)[C@H]3O)CC[C@]3(C)C(=CCC4[C@@]5(C)C[C@@H](O)[C@H](O)C(C)(C)C5CC[C@]43C)C2[C@@H]1O (some centres undefined) | inconclusive [cytotoxic, partial curve, poor fit] |  |
| CC12CC(c3ccoc3)OC(=O)C1CCC1(C)C2CCC(O)C1(C)O (centres undefined) |  | inactive: 74.1% |
| CC(C)=CCC[C@](C)(O[C@@H]1O[C@H](CO)[C@@H](O)[C@H](O)[C@H]1O)[C@H]1CC[C@]2(C)[C@@H]1[C@H](O)CC1[C@@]3(C)CC[C@H](O)C(C)(C)C3[C@@H](O[C@@H]3O[C@H](CO)[C@@H](O)[C@H](O)[C@H]3O[C@@H]3OC[C@@H](O)[C@H](O)[C@H]3O)C[C@]12C (some centres undefined) |  | inactive: 84.8% [at 9.25 µM] |
| CC(C)=CCC/C(C)=C/CO |  | inactive: 60.6% |
| N=C(N)c1ccc2nc(-c3cc(CC(=O)NC(CC(=O)O)C(=O)O)cc(-c4cc(S(N)(=O)=O)ccc4O)c3O)[nH]c2c1 (centres undefined) |  | inactive: 90.6% |
| CCC(C)(O)C(O)C(=O)OCc1ccc(O[C@@H]2O[C@H](CO)[C@@H](O)[C@H](O)[C@H]2O)cc1 (some centres undefined) |  | inactive: 96.8% [at 17.3 µM] |
| CCC(C)/C=C(C)/C=C/C1=CC2=C(Cl)C(=O)C(C)(OC(C)=O)C(=O)C2=CN1C(CCC(=O)O)C(=O)O (centres undefined) |  | inactive: 76.2% [at 17.3 µM] |
| COc1cc2c(cc1O)[C@H](c1ccc(O[C@@H]3O[C@H](CO)[C@@H](O)[C@H](O)[C@H]3O)c(OC)c1)[C@@H](CO)[C@](O)(CO)C2 | inconclusive [cytotoxic, partial curve, poor fit] |  |
| CC(C)=CCC[C@](C)(O)[C@H]1CC[C@]2(C)[C@@H]1[C@H](O)CC1[C@@]3(C)CC[C@H](O)C(C)(C)[C@@H]3[C@@H](O[C@@H]3O[C@H](CO)[C@@H](O)[C@H](O)[C@H]3O[C@@H]3O[C@H](CO)[C@@H](O)[C@H](O)[C@H]3O)C[C@]12C (some centres undefined) |  | inactive: 87.7% [at 17.3 µM] |
| COc1ccccc1CC(C(=O)O)N(C)C(=O)c1ccccc1 (centres undefined) | inconclusive [cytotoxic, partial curve, poor fit] |  |
| CCOC(=O)c1cnc2c(cnn2CC)c1NN=C(C)C |  | inactive: 71.1% |
| C=C[C@H]1[C@H](O[C@@H]2O[C@H](CO)[C@@H](O)[C@H](O)[C@H]2O)OC=C(C(=O)OC)[C@H]1CCOC(=O)c1cc(O)c(O)c(O)c1 |  | inactive: 76.8% [at 17.3 µM] |
| C=C(C)C(C)C1OC23CC4(CO2)C(CCC2C5(C)CCC(OC6OCC(O)C(OC7OC(CO)C(O)C(OC8OCC(O)C(O)C8O)C7O)C6OC6OC(CO)C(O)C6O)C(C)(C)C5CCC24C)C3C(C)(O)C1OC(C)=O (centres undefined) | inconclusive [cytotoxic, partial curve] |  |
| CC1(C)C(O)CCC2(C)C1C(O)C=C1COC(=O)C12O (centres undefined) |  | inactive: 105% |
| Cc1ncc(CO)c(C=O)c1O |  | inactive: 79.1% |
| COC1OC(=O)C2=C1C1(C)CCCC(C)(C)C1CC2O (centres undefined) |  | inactive: 64.9% |
| O=C(OCC1(COC(=O)c2cccnc2)CCCC(COC(=O)c2cccnc2)(COC(=O)c2cccnc2)C1O)c1cccnc1 |  | inactive: 78.4% |
| CC(C)NC[C@@H](O)COc1ccc(CC(N)=O)cc1 |  | inactive: 98.2% |
| C/C=C/C=C/C=C/C(=O)OC1C=C2C(O)OC(=O)[C@]2(O)[C@@]2(C)CCCC(C)(C)[C@H]12 (some centres undefined) | inconclusive [cytotoxic, single point] |  |
| COc1cc(OC)cc(-c2ccc3c(-c4ccc(F)cc4)[nH]nc3n2)c1 |  | inactive: 91.8% |
| CCCC(=O)O[C@]1(C(=O)CC)CC[C@H]2[C@@H]3CCC4=CC(=O)CC[C@]4(C)[C@H]3[C@@H](O)C[C@@]21C |  | inactive: 56.8% |
| NS(=O)(=O)c1cc(C2(O)NC(=O)c3ccccc32)ccc1Cl (centres undefined) |  | inactive: 96.1% |
| Cc1ncc(CO)c(CN)c1O | inconclusive [cytotoxic, partial curve, poor fit] |  |
| NC(N)=NCCC[C@H](N)C(=O)O |  | inactive: 98.3% [at 4.97 µM] |
| CC1(C)O[C@@H]2[C@@H](CO[C@@]3(COS(N)(=O)=O)OC(C)(C)O[C@@H]23)O1 |  | inactive: 89.3% |
| COC(=O)CC(C)(O)CC(=O)OCc1ccc(O[C@@H]2O[C@H](CO)[C@@H](O)[C@H](O)[C@H]2O)cc1 (some centres undefined) |  | inactive: 100% [at 17.3 µM] |
| CC1=CC(=O)C(=C(C)C)CC2C(C)(O)CCC12O (centres undefined) |  | inactive: 92.1% |
| COC(=O)c1ccc(=O)c2nc3/c(=C/O)c(O)cc(=O)c3[nH]c12 |  | inactive: 95.5% |
| OC[C@H]1O[C@@H](O[C@H]2[C@H](O)[C@@H](CO)O[C@@H](OCc3ccccc3)[C@@H]2O[C@@H]2OC[C@](O)(CO)[C@H]2O)[C@H](O)[C@@H](O)[C@@H]1O |  | inactive: 81.7% [at 17.3 µM] |
